# Reference: PubChem BioAssay AID652106 (National Center for Advancing Translational Sciences (NCATS), 2013)
# The campaign covered roughly 370,000 compounds. About 500 (0.14%) were called active. This list was built around the results that the source calls inconclusive (neither active nor inactive); the mix of calls is not that of the screen. Calls come from the whole dose curve; as a rule, active = well fitted activation curve with a large enough effect; inconclusive = small, poorly fitted or top-dose-only effect; inactive = no such curve, though single readings can be large or run the other way. No potency is given beside an inconclusive call; the fits are too rough.
# Assay: qHTS of alpha-syn Inhibitors; note: nearly all actives have a fitted effect of over 65% in size
# Details: Yeast expressing alpha-synuclein, BacTiter-Glo, 24 h; Potency: growth rescue unless noted; series mostly up to 46.1 µM
# Procedure, shortened: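 Screening used galactose-induced yeast with toxic alpha-synuclein levels, exposed to compound for 24 hr at 30 deg C. Cell growth, read with BacTiter-Glo luminescence, gave the measured signal.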
# Potency is the fitted concentration of half-maximal effect; tags give direction and shape of the fitted curve.
row,Compound,Potency
1,CCCn1nc(Oc2nc(SC)nc(N(C)C)n2)ccc1=O,inactive
2,OC[C@@H]1CN(Cc2ccc(-c3ccccc3)cc2)C[C@H](n2cnc3c(NC4CCCC4)ncnc32)O1,"inconclusive [activator, single point]"
3,Cc1onc(-c2ccccc2)c1-c1ccnc(N)n1,"inconclusive [activator, single point]"
4,CC1(Cc2ccccc2Cl)C(=O)Nc2c(Cl)cccc21 (stereo not drawn),active: 3.55 µM
5,COc1ccc(CCNS(=O)(=O)c2cccc(S(=O)(=O)N3CCCC3)c2)cc1OC,inactive
6,CC(=O)Nc1cc(-c2ccccc2Cl)cn2c(-c3ccc(S(C)(=O)=O)cc3)cnc12,"inconclusive [activator, single point]"
7,COc1cc(C(O)c2nc(-c3cccc4cccnc34)cs2)ccc1F (stereo not drawn),"inconclusive [activator, single point]"
8,COc1ccc(OCC(O)CN2CCN(c3ccc(Cl)cc3)CC2)cc1 (stereo not drawn),"inconclusive [activator, single point]"
9,Cc1ccccc1NCc1cccn1-c1nnc(N2CCC(C)CC2)s1,"inconclusive [activator, partial curve]"
10,COc1cccc(CNS(=O)(=O)c2cc(Br)ccc2Br)c1,"inconclusive [activator, single point]"
11,CN=c1sc2c(n1C)C(=O)c1ccccc1C2=O,inactive
12,CCOC(=O)C1=C(CN2CCCCC2)NC(=O)NC1c1cc(C)ccc1C (stereo not drawn),"inconclusive [activator, single point]"
13,CCCS(=O)(=O)N1CCN=C1SCc1cccc(F)c1,"inconclusive [activator, single point]"
14,CCc1ccc(S(=O)(=O)NCc2csc(-c3ccccc3)n2)s1,inactive
15,CN(C)S(=O)(=O)N1CCN(CC(=O)Nc2cc(Cl)ccc2Cl)CC1,inactive
16,O=C1C2ON(c3ccc(Cl)cc3)C(c3ccco3)C2C(=O)N1c1ccccc1 (stereo not drawn),"inconclusive [activator, partial curve]"
17,O=C(Nc1cccc(C(F)(F)F)c1)Nc1ccc2nc([C@@H]3O[C@H](CO)[C@@H](O)[C@H](O)[C@H]3O)[nH]c2c1,inactive
18,COc1ccccc1NC(=O)c1sc2nc(N3CCOCC3)c3c(c2c1N)CC(C)(C)OC3,inactive
19,Cn1nnnc1SCCCNCc1ccccc1OCc1ccccc1Cl,inactive
20,CCCOC(=O)CSc1ncnc2sc3c(c12)CCC(C)C3 (stereo not drawn),inactive
21,C[C@H]1CN([C@@H](C)CO)C(=O)CCCn2nncc2CO[C@H]1CN(C)S(=O)(=O)c1ccccc1,"inconclusive [activator, single point]"
22,COc1ccc(CSC(=S)NNc2ccccc2)cc1,"inconclusive [activator, single point]"

row,Compound,Potency
1,Cc1ccc(C(=O)N2NC(c3ccccc3F)C3C(=O)N(c4cccc(C)c4)C(=O)C32)cc1 (stereo not drawn),"inconclusive [activator, partial curve]"
2,Cc1ccc(C)c(N2CCN(C(=O)Cn3ncc4ccsc4c3=O)CC2)c1,active: 15.8 µM
3,CCn1c2ccccc2c2cc(/C=N/n3cnnc3)ccc21,"inconclusive [activator, partial curve]"
4,CC(C)(C)NC(=O)C(c1cccc2ccccc12)n1c(=O)c(-c2ccco2)nc2ccccc21 (stereo not drawn),"inconclusive [activator, single point]"
5,O=C1[C@H]2[C@@H](c3ccc(C(F)(F)F)cc3)N[C@]3(CCCN(Cc4ccc(C(F)(F)F)cc4)C3=O)[C@H]2C(=O)N1Cc1ccccc1,"inconclusive [activator, single point]"
6,COc1ccc(S(=O)(=O)N2CCOc3ccccc32)cc1,"inconclusive [activator, single point]"
7,CCO[C@H]1OC(C(=O)Nc2ccccc2)=C[C@@H](c2ccc(C(F)(F)F)cc2)[C@@H]1CCCO,"inconclusive [activator, single point]"
8,CN1CCN(C(=O)c2ccccc2NS(=O)(=O)c2ccc(F)cc2)CC1,"inconclusive [activator, single point]"
9,CCCNS(=O)(=O)c1ccc(OCC(=O)N2CCC(C(=O)OCC)CC2)cc1,inactive
10,CC(=O)Nc1ccc(Nc2nnc(-c3ccc(C)c(S(=O)(=O)NCCO)c3)c3ccccc23)cc1,"inconclusive [activator, single point]"
11,O=C(Cc1cccs1)NCCc1cn2ccccc2n1,"inconclusive [activator, single point]"
12,COC(=O)c1c(NC(=O)Cn2nc(C(F)F)cc2C(F)F)sc(C)c1C,"inconclusive [activator, single point]"
13,O=S(=O)(NC1CCCCCC1)c1cccc(Cl)c1,"inconclusive [activator, single point]"
14,CCOC(=O)c1ccc(NS(=O)(=O)c2ccc3[nH]c4c(c3c2)CCCCC4)cc1,"inconclusive [activator, single point]"
15,O=C(O)c1cc(S(=O)(=O)N(Cc2ccccc2)c2ccccc2Cl)ccc1Cl,"inconclusive [activator, single point]"
16,CC(C)(C)c1ccc(C(=O)N2CCC(=O)N([C@H](COCc3ccccc3)Cc3ccccc3)CC2)cc1,"inconclusive [activator, single point]"
17,COC(=O)c1sccc1NC(=O)Nc1ccccc1C,inactive
18,O=C(/C=C/c1ccccc1[N+](=O)[O-])Nc1cccc(S(=O)(=O)NC2=NCCCCC2)c1,"inconclusive [activator, single point]"
19,O=C(NCCCN1CCCC1=O)C(=O)NCC1OCCN1S(=O)(=O)c1cc(F)ccc1F (stereo not drawn),"inconclusive [activator, single point]"
20,Cc1cccc(Oc2ncnc(N)c2[N+](=O)[O-])c1,inactive
21,O=S(=O)(c1ccc(Cl)cc1)N1CCN(c2nc(Nc3cc(Cl)ccc3O)nc3ccccc23)CC1,inactive
